# Results published in a collection of fitness landscapes (doi:10.1126/science.1257360).
# The other results are listed elsewhere or left out.
# B1: PhoQ; a variant is named by its letters at X, in order, P23837 (parent)
# chain: MKKLLRLFFPLSLRVRFLLATAAVVLVLSLAYGMVALIGYSVSFDKTTFRLLRGESNLFYTLAKWENNKLHVELPENIDKQSPTMTLIYDENGQLLWAQRDVPWLMKMIQPDWLKSNGFHEIEADVNDTSLLLSGDHSIQQQLQEVREDDDDAEMTHSVAVNVYPATSRMPKLTIVVVDTIPVELKSSYMVWSWFIYVLSANLLLVIPLLWVAAWWSLRPIEALAKEVRELEEHNRELLNPATTRELTSLVRNLNRLLKSERERYDKYRTTLTDLTHSLKTPLXXLQXXLRSLRSEKMSVSDAEPVMLEQISRISQQIGYYLHRASMRGGTLLSRELHPVAPLLDNLTSALNKVYQRKGVNISLDISPEISFVGEQNDFVEVMGNVLDNACKYCLEFVEISARQTDEHLYIVVEDDGPGIPLSKREVIFDRGQRVDTLRPGQGVGLAVAREITEQYEGKIVAGESMLGGARMEVIFGRQHSAPKDE
# Variants of: B1
# Assay: enrichment ratio after two sorts for PhoP signalling (ratio (wild type AVST 3.29)); higher = more functional
# Settings: with PhoP (E. coli)
row,Variant,enrichment ratio
1,NGWH,≤ 0.25
2,ITLV,7.88
3,LGHY,≤ 0.25
4,TDIT,≤ 0.25
5,MYQW,≤ 0.25
6,QLCI,≤ 0.25
7,QLKW,≤ 0.25
8,WSKD,≤ 0.25
9,MCDC,≤ 0.25
10,DPMR,≤ 0.25
11,QRKV,≤ 0.25
12,FWQV,≤ 0.25
13,YYAN,≤ 0.25
14,QKIY,≤ 0.25
15,NMLY,≤ 0.25
16,SWEQ,≤ 0.25
17,HIDY,≤ 0.25
18,QGVS,≤ 0.25
19,ARFK,≤ 0.25
20,DWFG,≤ 0.25
21,GLCN,12.8
22,WQPM,≤ 0.25
23,LEVR,≤ 0.25
24,KGTT,≤ 0.25

row,Variant,enrichment ratio
1,IHQA,≤ 0.25
2,PTAG,≤ 0.25
3,RNKM,≤ 0.25
4,DMVK,≤ 0.25
5,DGSE,≤ 0.25
6,KFDA,≤ 0.25
7,FARF,0.405
8,VDIP,≤ 0.25
9,IRKA,≤ 0.25
10,SLFY,≤ 0.25
11,MRMV,≤ 0.25
12,ISIW,≤ 0.25
13,AIAV,9.01
14,SQMC,10.5
15,PSNK,≤ 0.25
16,NTFG,≤ 0.25
17,ADCL,≤ 0.25
18,WWSD,≤ 0.25
19,SFWD,≤ 0.25
20,KNTL,≤ 0.25
21,TFFK,≤ 0.25
22,HTWF,≤ 0.25
23,EQIY,≤ 0.25
24,NSMG,≤ 0.25

row,Variant,enrichment ratio
1,EGCF,≤ 0.25
2,GNHP,≤ 0.25
3,TEVF,2.32
4,ALAE,≤ 0.25
5,QIIM,≤ 0.25
6,HMFC,≤ 0.25
7,VIRD,≤ 0.25
8,QTPY,≤ 0.25
9,QHHV,≤ 0.25
10,CCAF,6.47
11,QEIL,≤ 0.25
12,HRWA,≤ 0.25
13,RVQG,≤ 0.25
14,LPFG,≤ 0.25
15,ETII,≤ 0.25
16,QVRG,≤ 0.25
17,EFSL,≤ 0.25
18,YPPC,≤ 0.25
19,YNHT,≤ 0.25
20,SGQH,11.9
21,HTMY,≤ 0.25
22,MSLC,11.7
23,NHET,≤ 0.25
24,WIWE,≤ 0.25

row,Variant,enrichment ratio
1,IHPL,≤ 0.25
2,VTCM,2.29
3,AKVF,1.45
4,GPGT,≤ 0.25
5,SIDY,≤ 0.25
6,YRTC,≤ 0.25
7,KVWY,≤ 0.25
8,LWEC,≤ 0.25
9,LKQS,≤ 0.25
10,QPEL,≤ 0.25
11,LLSR,≤ 0.25
12,HICG,≤ 0.25
13,NILD,≤ 0.25
14,RCHH,≤ 0.25
15,QDAV,≤ 0.25
16,YMGS,≤ 0.25
17,HRHV,≤ 0.25
18,ENLQ,≤ 0.25
19,PKRF,≤ 0.25
20,AYNA,≤ 0.25
21,ADST,≤ 0.25
22,FEYG,≤ 0.25
23,RDYQ,≤ 0.25
24,LVDW,≤ 0.25

row,Variant,enrichment ratio
1,KFGY,≤ 0.25
2,LSGW,≤ 0.25
3,YQAS,≤ 0.25
4,FQAL,≤ 0.25
5,HWDI,≤ 0.25
6,TCGV,6.19
7,ILGC,≤ 0.25
8,GRET,≤ 0.25
9,IRTR,≤ 0.25
10,TRQG,≤ 0.25
11,SWIP,≤ 0.25
12,FDWY,≤ 0.25
13,NPYG,≤ 0.25
14,QPGD,≤ 0.25
15,HRQV,≤ 0.25
16,LNMK,≤ 0.25
17,GYPS,≤ 0.25
18,YFLK,≤ 0.25
19,DQYE,≤ 0.25
20,TDYT,≤ 0.25
21,PYQK,≤ 0.25
22,EGVL,≤ 0.25
23,GTAI,≤ 0.25
24,PPMR,≤ 0.25

row,Variant,enrichment ratio
1,RYME,≤ 0.25
2,IQKQ,≤ 0.25
3,YRDG,≤ 0.25
4,DSIY,≤ 0.25
5,EAML,≤ 0.25
6,TLCK,≤ 0.25
7,PFCG,≤ 0.25
8,KMPH,≤ 0.25
9,WNYY,≤ 0.25
10,NRRP,≤ 0.25
11,WGFW,≤ 0.25
12,MWIF,≤ 0.25
13,FIYV,≤ 0.25
14,IDFY,≤ 0.25
15,KHPM,≤ 0.25
16,MHHR,≤ 0.25
17,AQMR,≤ 0.25
18,QDMT,≤ 0.25
19,DHQC,≤ 0.25
20,ISTM,≤ 0.25
21,SVNA,≤ 0.25
22,IWAN,≤ 0.25
23,TERT,≤ 0.25
24,IGWD,≤ 0.25

row,Variant,enrichment ratio
1,QACF,≤ 0.25
2,NQVH,≤ 0.25
3,TYYP,≤ 0.25
4,DPNF,≤ 0.25
5,NSEG,≤ 0.25
6,GCYR,≤ 0.25
7,MSMS,≤ 0.25
8,PQHI,≤ 0.25
9,FLGM,≤ 0.25
10,GGCH,5.28
11,FEMV,≤ 0.25
12,DFYD,≤ 0.25
13,RNQR,≤ 0.25
14,HAWK,≤ 0.25
15,NDGD,≤ 0.25
16,YHFT,≤ 0.25
17,KTHQ,≤ 0.25
18,PDNG,≤ 0.25
19,LWPR,1.03
20,WYNR,≤ 0.25
21,TSCS,14.7
22,VSTW,≤ 0.25
23,GNIT,≤ 0.25
24,HNCC,≤ 0.25

row,Variant,enrichment ratio
1,HEWD,≤ 0.25
2,LKYD,≤ 0.25
3,ADPS,≤ 0.25
4,ELEH,≤ 0.25
5,HDGG,≤ 0.25
6,LHRF,≤ 0.25
7,VEQD,≤ 0.25
8,VFMK,≤ 0.25
9,PKLW,≤ 0.25
10,NREE,≤ 0.25
11,TTMN,8.25
12,QFVR,≤ 0.25
13,HKWH,≤ 0.25
14,GVVV,≤ 0.25
15,TNYE,≤ 0.25
16,PPVR,≤ 0.25
17,TELM,13.8
18,LFPR,≤ 0.25
19,HLGD,≤ 0.25
20,SIEQ,≤ 0.25
21,VKER,≤ 0.25
22,HIKA,≤ 0.25
23,MHRD,≤ 0.25
24,INFF,≤ 0.25

row,Variant,enrichment ratio
1,FLDW,≤ 0.25
2,ADTI,≤ 0.25
3,RKVL,≤ 0.25
4,MNRR,≤ 0.25
5,AVMP,0.383
6,QNHE,≤ 0.25
7,DVKP,≤ 0.25
8,NYNV,≤ 0.25
9,TEMP,≤ 0.25
10,VWSW,≤ 0.25
11,WNTC,≤ 0.25
12,WIYA,≤ 0.25
13,HKPQ,≤ 0.25
14,LRNN,≤ 0.25
15,QVTW,≤ 0.25
16,MVNF,4.62
17,ARER,≤ 0.25
18,IANF,≤ 0.25
19,LDEV,≤ 0.25
20,GRSM,≤ 0.25
21,QHSC,≤ 0.25
22,LTAV,≤ 0.25
23,WNAD,≤ 0.25
24,YDTS,≤ 0.25

row,Variant,enrichment ratio
1,TTVV,2.55
2,EREI,≤ 0.25
3,QLAN,≤ 0.25
4,TNCS,0.621
5,WVLC,≤ 0.25
6,ATHI,≤ 0.25
7,KHGT,≤ 0.25
8,ATGF,7.16
9,DFDL,≤ 0.25
10,DKLH,≤ 0.25
11,EETI,≤ 0.25
12,RSHK,≤ 0.25
13,SGCC,14.2
14,AIEP,≤ 0.25
15,YMYP,≤ 0.25
16,VSVN,≤ 0.25
17,RGMW,≤ 0.25
18,WDDQ,≤ 0.25
19,QSFT,6.28
20,TFLV,≤ 0.25
21,QIQK,≤ 0.25
22,LDQP,≤ 0.25
23,LVFT,≤ 0.25
24,DYCI,≤ 0.25

row,Variant,enrichment ratio
1,HSWD,≤ 0.25
2,VYMS,≤ 0.25
3,MHKK,≤ 0.25
4,SINP,≤ 0.25
5,PHFH,≤ 0.25
6,MKTV,≤ 0.25
7,PGCE,≤ 0.25
8,NLQI,≤ 0.25
9,ESDE,≤ 0.25
10,RLFH,≤ 0.25
11,SEHD,≤ 0.25
12,SVAQ,7.86
13,NCFQ,≤ 0.25
14,KNVC,≤ 0.25
15,HYYM,≤ 0.25
16,QDRR,≤ 0.25
17,QHPW,≤ 0.25
18,KVGC,≤ 0.25
19,HEIW,≤ 0.25
20,ITGM,≤ 0.25
21,LQIN,≤ 0.25
22,FHWR,≤ 0.25
23,QHMA,≤ 0.25
24,FEQS,≤ 0.25

row,Variant,enrichment ratio
1,KLQQ,≤ 0.25
2,QNSC,≤ 0.25
3,TSQI,9.84
4,QEGH,24.6
5,APMI,≤ 0.25
6,MYHM,≤ 0.25
7,NQLI,≤ 0.25
8,EENA,≤ 0.25
9,FGIH,≤ 0.25
10,AESV,14.8
11,GNMM,0.333
12,DMQR,≤ 0.25
13,NAQR,≤ 0.25
14,HYWW,≤ 0.25
15,WDED,≤ 0.25
16,MLEE,≤ 0.25
17,FFMC,≤ 0.25
18,PWSR,≤ 0.25
19,VLGK,≤ 0.25
20,LTWM,≤ 0.25
21,IGCF,≤ 0.25
22,KNKL,≤ 0.25
23,YLHS,≤ 0.25
24,INLK,≤ 0.25

row,Variant,enrichment ratio
1,RAEY,≤ 0.25
2,SHGS,≤ 0.25
3,PMCF,≤ 0.25
4,QIQH,≤ 0.25
5,PQPQ,≤ 0.25
6,STDY,≤ 0.25
7,DLWP,≤ 0.25
8,QCDC,≤ 0.25
9,GELT,11.2
10,INTY,0.258
11,SQYK,≤ 0.25
12,RFYD,≤ 0.25
13,EHFH,≤ 0.25
14,KGEV,≤ 0.25
15,DWKQ,≤ 0.25
16,FFFV,≤ 0.25
17,DYHH,≤ 0.25
18,KTDT,≤ 0.25
